In the supplement of paper PMC4604168 (melanoma cell lines):
The other results are listed elsewhere or left out. Repeats are few or missing, and single values can be far off.

Assays:
Assay in all cases: cell count relative to DMSO control; melanoma cells; higher = more viable cells
Settings in all cases: library dose: standard library concentration; 72 h
[1] = test system: G361
[2] = test system: IPC-298
[3] = test system: IST-MEL1
[4] = test system: LB2518-MEL
[5] = test system: LOXIMVI
[6] = test system: MEL-HO
[7] = test system: MZ2-MEL
[8] = test system: MeWo
[9] = test system: RPMI7951
[10] = test system: RVH-421
[11] = test system: SkMel28
[12] = test system: SkMel2
[13] = test system: SkMel30
[14] = test system: SkMel5
[15] = test system: UACC257
[16] = test system: UACC62
[17] = test system: WM115
[18] = test system: WM1716
[19] = test system: WM3526
[20] = test system: WM1745
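Note: cells treated in 1,536-well plates, then fixed and DAPI-stained, with nuclei counted from automated high-throughput microscope images.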

SMILES	cell count [1] [%]	cell count [2] [%]	cell count [3] [%]	cell count [4] [%]	cell count [5] [%]	cell count [6] [%]	cell count [7] [%]	cell count [8] [%]	cell count [9] [%]	cell count [10] [%]	cell count [11] [%]	cell count [12] [%]	cell count [13] [%]	cell count [14] [%]	cell count [15] [%]	cell count [16] [%]	cell count [17] [%]	cell count [18] [%]	cell count [19] [%]	cell count [20] [%]
C[C@]12O[C@H](C[C@]1(O)CO)n1c3ccccc3c3c4c(c5c6ccccc6n2c5c31)CNC4=O [Lestaurtinib] + Oc1cc(-c2nc(-c3ccccc3)[nH]c2-c2ccncc2)ccc1Cl [L779450] (first compound 0.02 µM, partner dose 1 µM)	44.5	57.5	79.9	60.5	83.1	69	88	72.9	105	71	34.2	12.9	73.1	47.8	90.3	49.1	51.5	73	38.9	–
Cn1cc(C2=C(c3cn(C4CCN(Cc5ccccn5)CC4)c4ccccc34)C(=O)NC2=O)c2ccccc21 [Enzastaurin] + NCC(=O)Nc1ccc(-n2nc(C(F)(F)F)cc2-c2ccc3c(ccc4ccccc43)c2)cc1 [OSU03012] (first compound 4 µM, partner dose 5 µM)	50.5	61	58.6	87.5	83.8	69.1	90.6	81.8	24.7	38.6	24	33.8	34.4	48	89.2	42.4	65.5	63.7	40.8	32.8
C[C@]12O[C@H](C[C@]1(O)CO)n1c3ccccc3c3c4c(c5c6ccccc6n2c5c31)CNC4=O [Lestaurtinib] + C/C(O)=C(\C#N)C(=O)Nc1cc(Br)ccc1Br [LFM-A13] (first compound 0.02 µM, partner dose 10 µM)	89.3	54.5	92.1	62.4	91.2	86.4	81.9	71.1	74	99.8	51.9	93.8	81.5	68.5	82.7	73.5	74.8	79.2	65.5	–
C[C@]12O[C@H](C[C@]1(O)CO)n1c3ccccc3c3c4c(c5c6ccccc6n2c5c31)CNC4=O [Lestaurtinib] + COc1cc(N2CCC(N3CCN(C)CC3)CC2)ccc1Nc1ncc(Cl)c(Nc2ccccc2S(=O)(=O)C(C)C)n1 [NVP-TAE684] (first compound 0.02 µM, partner dose 0.4 µM)	60.1	74.8	113	74.5	85.5	79.8	98.8	55.8	64.6	95.7	50.4	55.9	55.4	61.1	80.4	63.2	65.2	83.8	50.9	–
Cn1cc(C2=C(c3cn(C4CCN(Cc5ccccn5)CC4)c4ccccc34)C(=O)NC2=O)c2ccccc21 [Enzastaurin] + Cc1cc(N2CCOCC2)cc2[nH]c(-c3c(NC[C@@H](O)c4cccc(Cl)c4)cc[nH]c3=O)nc12 [BMS536924] (first compound 4 µM, partner dose 1 µM)	79.6	106	91	68.4	82.2	94	131	96.5	55.8	47.7	74.5	74.4	95.9	70	104	74.5	111	90.1	85.3	41.6
Cn1cc(C2=C(c3cn(C4CCN(Cc5ccccn5)CC4)c4ccccc34)C(=O)NC2=O)c2ccccc21 [Enzastaurin] + O=C(O)[C@@H]1[O][Sb](=[O])([O][Sb]2(=[O])[O][C@H]([C@H](O)CO)[C@H](O)[C@H](C(=O)O)[O]2)[O][C@H]([C@H](O)CO)[C@@H]1O [stibogluconate] (first compound 4 µM, partner dose 10 µM)	77.5	98.7	97.5	123	90.6	109	82.2	85.6	72.7	75.8	110	103	88.6	105	104	72.9	91.9	98.5	89	72
N.N.[Cl][Pt][Cl] [cisplatin] + COc1cc2ncnc(Nc3ccc(Oc4ccccc4)cc3)c2cc1OC [SrcI1] (first compound 8 µM, partner dose 10 µM)	69.7	80.7	87.5	125	75.8	83.2	90	84	66.3	97.7	73.8	96.4	73.4	67	63.5	60.8	71	82.6	65.9	–
Cn1cc(C2=C(c3cn(C4CCN(Cc5ccccn5)CC4)c4ccccc34)C(=O)NC2=O)c2ccccc21 [Enzastaurin] + COc1ccc2c(c1)CCC1C2CCC2(C)C(NCCCCCCN3C(=O)C=CC3=O)CCC12 [U73122] (first compound 4 µM, partner dose 2 µM)	77.2	90.6	86.6	96.3	87.9	93.6	91.6	71.2	42	89.3	87.3	97.8	112	91.6	85.2	65.3	97	61	90.9	–
Cn1cc(C2=C(c3cn(C4CCN(Cc5ccccn5)CC4)c4ccccc34)C(=O)NC2=O)c2ccccc21 [Enzastaurin] + COC(=O)c1sccc1S(=O)(=O)Nc1ccc(Nc2ccccc2)cc1OC [GSK0660] (first compound 4 µM, partner dose 5 µM)	75.2	92.4	87.5	55.3	102	103	83.3	96.3	70.2	63.5	89.3	75.5	99.3	103	81.5	79.7	104	76.3	94.1	–
